Source: paper PMC10082178, “Divalent nanobodies to platelet CLEC-2 can serve as agonists or antagonists” (Communications Biology, 2023)

B1: N-terminal eGFP-tagged human CLEC-2 (CLEC-2-eGFP) (receptor)
chain: MQDEDGYITLNIKTRKPALISVGSASSSWWRVMALILLILCVGMVVGLVALGIW[about 200 residues omitted here]
notes: C-type lectin-like receptor 2 (CLEC-2), human; eGFP joined through a linker to the cytosolic N-terminus; also called C-type lectin-like receptor 2; source: HEK293T, transiently transfected (PEI), on cells; DT40 chicken B cells, electroporated, for the NFAT reporter assay; not shown: eGFP (A206K), N-terminal, kept
B2: CLEC-2 of human platelets (receptor)
chain: not shown
notes: C-type lectin-like receptor 2 (CLEC-2), endogenous glycosylated receptor of human platelets; also called platelet CLEC-2; source: endogenous, resting human platelets; extracted in styrene maleic acid lipid particles (SMALPs) for SMA-PAGE; on washed platelets for aggregometry

Legend:
[1] = target: the molecule itself; assay: fluorescence correlation spectroscopy with photon counting histogram analysis; HEK293T cells transfected with increasing CLEC-2-eGFP DNA (50, 100 or 500 ng); molecular brightness against expression
[2] = target: the molecule itself; assay: fluorescence correlation spectroscopy with photon counting histogram analysis; eGFP-tagged receptors on the plasma membrane of transfected HEK293T cells (100 ng CLEC-2-eGFP, 500 ng CD28-eGFP or 100 ng CD86-eGFP DNA); molecular brightness compared with monomer and dimer controls; 25 °C
[3] = target: the molecule itself; assay: native gel or EMSA; SMA-PAGE: whole cell SMALPs of resting human platelets (2.5% SMA, NaCl to 500 mM) on native Tris-Glycine gels, western blot with anti-αIIb or anti-CLEC-2 AYP2

Protein	molecular brightness, fold over monomeric CD86 [1] [fold]	stoichiometry N [2]	stoichiometry N [3]
B1	2.3	2	–
B2	–	–	2
